# Reference: the supplement of paper PMC9174493
# This is one part of the list. Single values of this set are uncertain. Values with irradiation are relative to irradiated vehicle.
# What was measured:
# A549-Dual [1] = test: NF-kB reporter (SEAP) activity, viability-corrected, relative to vehicle (fold change vs vehicle); higher = more activation of STING-IRF / NF-kB immune response reporter
# A549-Dual [2] = test: ISRE reporter (Lucia luciferase) activity, viability-corrected, relative to vehicle (fold change vs vehicle); higher = more activation of STING-IRF / NF-kB immune response reporter
# 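Throughout, for NF-kB reporter (SEAP) activity, viability-corrected, relative to vehicle: viability correction based on the alamar blue assay, with concentrations leaving 10% survival or less dropped.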
Structure (SMILES),"NF-kB reporter (A549-Dual [1]; 0.1 µM, irradiation: 8 Gy/4 fr)","NF-kB reporter (A549-Dual [1]; 0.1 µM, irradiation: none)","NF-kB reporter (A549-Dual [1]; 0.3 µM, irradiation: 8 Gy/4 fr)","NF-kB reporter (A549-Dual [1]; 0.3 µM, irradiation: none)","NF-kB reporter (A549-Dual [1]; 1 µM, irradiation: 8 Gy/4 fr)","NF-kB reporter (A549-Dual [1]; 1 µM, irradiation: none)","NF-kB reporter (A549-Dual [1]; 3 µM, irradiation: 8 Gy/4 fr)","NF-kB reporter (A549-Dual [1]; 3 µM, irradiation: none)","NF-kB reporter (A549-Dual [1]; 10 µM, irradiation: 8 Gy/4 fr)","NF-kB reporter (A549-Dual [1]; 10 µM, irradiation: none)","ISRE reporter (A549-Dual [2]; 0.1 µM, irradiation: 8 Gy/4 fr)","ISRE reporter (A549-Dual [2]; 0.1 µM, irradiation: none)","ISRE reporter (A549-Dual [2]; 0.3 µM, irradiation: 8 Gy/4 fr)","ISRE reporter (A549-Dual [2]; 0.3 µM, irradiation: none)","ISRE reporter (A549-Dual [2]; 1 µM, irradiation: 8 Gy/4 fr)","ISRE reporter (A549-Dual [2]; 1 µM, irradiation: none)","ISRE reporter (A549-Dual [2]; 3 µM, irradiation: 8 Gy/4 fr)","ISRE reporter (A549-Dual [2]; 3 µM, irradiation: none)","ISRE reporter (A549-Dual [2]; 10 µM, irradiation: 8 Gy/4 fr)","ISRE reporter (A549-Dual [2]; 10 µM, irradiation: none)"
CN1CCN2c3ncccc3Cc3ccccc3C2C1 (stereo not given) [Mirtazapine],1.19,2.04,1.17,1.59,1.57,1.19,1.91,1.3,1.07,0.844,1.05,1.53,1.01,1.35,1.26,1.14,1.05,1.16,1.43,1.17
C=CC1CN2CCC1CC2C(O)c1ccnc2ccc(OC)cc12.Cl.O.O (stereo not given) [Quinine HCl Dihydrate],0.854,1.19,0.764,1.25,0.928,0.997,1.32,1.01,0.936,0.888,0.955,0.963,0.714,0.865,0.7,0.941,0.977,1.09,1.29,1.33
COc1cc2c3cc1Oc1c(OC)c(OC)cc4c1C(Cc1ccc(O)c(c1)Oc1ccc(cc1)CC3N(C)CC2)N(C)CC4.Cl.Cl (stereo not given) [Berbamine (dihydrochloride)],1.25,1.1,0.99,1.17,1.06,1.51,0.949,1.25,0.865,1.11,1.24,1.25,1.18,1.67,1.23,1.56,1.17,1.43,1.18,1.81
O=c1[nH]c(=O)n(C2CCCO2)cc1F (stereo not given),1.16,1.14,1.19,1.19,0.861,1.08,1.02,0.769,0.869,0.924,0.985,1.01,1.34,1.1,0.954,1.13,0.941,0.768,0.97,0.871
O=C(O)CCCN1CCC(OC(c2ccc(Cl)cc2)c2ccccn2)CC1.O=S(=O)(O)c1ccccc1 (stereo not given) [Bepotastine Besilate],1.24,1.23,1.08,1.54,1.07,2.11,1.14,1.36,1.12,1.09,1.11,1.29,1.08,1.31,1.21,1.36,1.3,1,1.15,1.06
CC1(C)OC2CC3C4CC(F)C5=CC(=O)C=CC5(C)C4(F)C(O)CC3(C)C2(C(=O)CO)O1 (stereo not given) [Fluocinolone Acetonide],0.414,0.435,0.476,0.471,0.346,0.611,0.294,0.633,0.283,0.738,0.0359,0.178,0.0371,0.162,0.0379,0.253,0.0451,0.222,0.0409,0.234
NC(=O)c1cccc2cn(-c3ccc(C4CCCNC4)cc3)nc12 (stereo not given) [Niraparib (MK-4827)],1.03,0.958,0.95,0.957,0.982,1.03,0.87,1.41,0.975,1.28,1.05,0.993,0.975,1.32,1.14,1.49,1.04,3.07,0.948,4.11
C=C1C(=O)OC2C1CCC(=C)C1CCC(=C)C12 (stereo not given) [Dehydrocostus Lactone],1.26,1.49,1.12,1.71,1,1.16,1.41,1.31,1.41,1.46,1.13,0.99,0.863,1.05,0.658,0.835,0.972,0.891,0.621,1.04
CC(CCC(=O)NCCS(=O)(=O)O)C1CCC2C3C(O)CC4CC(O)CCC4(C)C3CCC12C (stereo not given) [Tauroursodeoxycholic Acid (TUDCA)],1.04,1.44,1.18,1.82,1.4,0.943,1.39,1.04,1.29,1.05,1.07,0.844,1.02,1.16,0.927,0.925,0.98,1.05,0.842,0.851
COc1c2ccoc2cc2oc(=O)ccc12 [Bergapten],1.26,1.32,1.11,0.99,1.36,1.1,1.24,1.03,1.09,1.26,1.26,0.933,1.03,0.968,0.89,0.829,0.846,0.968,0.899,0.791
CS(=O)(=O)c1ccc(C(=O)Nc2ccc(Cl)c(-c3ccccn3)c2)c(Cl)c1 [Vismodegib (GDC-0449)],1.18,1.04,1.34,1.17,1.2,1.29,1.24,0.792,0.976,0.927,1.01,0.93,1.51,0.951,1.1,0.991,1.12,0.748,0.924,0.958
O=C(c1cc(Cc2n[nH]c(=O)c3ccccc23)ccc1F)N1CCN(C(=O)C2CC2)CC1,0.925,1.05,0.967,1.13,0.926,1.15,1,1.07,0.986,1.22,0.985,1.16,1.13,1.35,0.98,1.22,1.1,2.2,1.05,3.15
Oc1ccc(/C=C/c2cc(O)cc(O)c2)cc1 [Resveratrol],0.985,1.39,1.06,1.3,1.46,1.06,1.44,1.11,0.931,1.43,0.967,1.06,0.858,0.959,0.891,0.938,0.844,0.982,0.588,2.63
CCCCOc1ccc(C(=O)CCN2CCCCC2)cc1.Cl [Dyclonine HCl],0.915,1.01,1.05,1.38,1.35,0.928,1.06,0.994,1.19,0.802,1.07,0.744,0.87,0.909,0.903,0.848,0.686,1.05,0.81,0.783
CCC(C)n1ncn(-c2ccc(N3CCN(c4ccc(OCC5COC(Cn6cncn6)(c6ccc(Cl)cc6Cl)O5)cc4)CC3)cc2)c1=O (stereo not given) [Itraconazole],0.985,1.03,0.804,0.92,0.928,0.924,0.815,1,0.919,0.902,0.903,1.34,0.806,0.957,0.844,1.01,0.867,0.789,0.863,0.854
CC(C)=CCC/C(C)=C/CC/C(C)=C/CCC(=O)OC/C=C(\C)CCC=C(C)C [Gefarnate],1.1,1.37,1.09,1.22,1.24,0.917,1.24,1.04,0.835,1.11,0.95,1.27,0.89,0.924,0.949,0.926,0.852,0.904,0.93,0.846
CCN1CCN(Cc2ccc(Nc3ncc(F)c(-c4cc(F)c5nc(C)n(C(C)C)c5c4)n3)nc2)CC1 [Abemaciclib],0.938,1.14,0.925,1.11,0.871,1.49,0.817,1.27,0.768,1.23,0.913,1.3,0.94,1.3,0.866,1.3,0.612,1.15,0.892,2.19
CN(C)CCC(c1ccc(Br)cc1)c1ccccn1.O=C(O)/C=C\C(=O)O (stereo not given) [Brompheniramine hydrogen maleate],0.943,1.6,0.988,1.61,1.35,1.1,1.27,1.1,1.01,0.902,1.04,1.15,0.916,1.18,0.972,1.16,1.25,1.24,1.1,1.16
COc1cc(Nc2ncc(F)c(Nc3ccc4c(n3)N(COP(=O)([O-])[O-])C(=O)C(C)(C)O4)n2)cc(OC)c1OC.[Na+].[Na+] [R788 (Fostamatinib) Disodium],1.5,0.97,0.982,0.991,0.87,0.9,0.838,1.06,0.981,1.65,0.976,1.17,1.02,0.846,0.945,0.805,0.902,0.231,0.0637,0.169
"O=C(c1ccc(F)c(F)c1Nc1ccc(I)cc1F)N1CC(O)(C2CCCCN2)C1 (stereo not given) [Cobimetinib (GDC-0973, RG7420)]",1.17,1.51,1.05,2.05,1.17,2.54,1.67,2.51,3.63,2.91,0.532,0.76,0.211,0.746,0.267,0.489,0.0504,0.248,0.0843,0.288
CC(=O)OC1(C(C)=O)CCC2C3CC(C)C4=CC(=O)C=CC4(C)C3(F)C(O)CC21C (stereo not given) [Fluorometholone Acetate],0.859,1.26,1.17,1.08,1.17,1.14,1.16,1.03,0.624,1.19,0.0679,0.254,0.0676,0.251,0.0848,0.268,0.0863,0.329,0.0836,0.337
CN1C(C(=O)Nc2ccccn2)=C(O)c2ccccc2S1(=O)=O [Piroxicam],0.874,1.49,1.02,1.31,1.2,1.03,1.4,1.06,1.18,0.936,0.952,0.773,0.87,0.782,0.8,0.803,0.884,1.01,0.896,0.973
COc1cc(OC)cc(N(CCNC(C)C)c2ccc3ncc(-c4cnn(C)c4)nc3c2)c1,1.02,1,0.766,1.04,0.872,1.32,0.864,1.19,0.943,0.921,0.76,0.763,0.793,0.944,0.845,1.22,0.893,1.31,1.06,1.07
